Measured values: US20230048046A1 (CUGENE, published 2023)

What was measured:
huIL-15Rβ-6His [1] = target: T1, huIL-15Rβ-6His (human, UniProt P14784 27-239); experiment: ELISA EC50 against P-0234 (IL-15 wild type)
T1 construct: Coated on the ELISA plate; also called IL-15Rβ subunit; huIL-15R/3-6His (so in the source); not shown: 6His tag per the name
T1 sequence (looked up): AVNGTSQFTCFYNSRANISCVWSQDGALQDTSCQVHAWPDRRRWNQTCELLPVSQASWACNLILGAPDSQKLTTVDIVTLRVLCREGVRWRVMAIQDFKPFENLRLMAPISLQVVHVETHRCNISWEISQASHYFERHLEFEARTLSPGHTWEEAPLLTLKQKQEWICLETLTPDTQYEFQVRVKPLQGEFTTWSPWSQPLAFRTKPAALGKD
Experimental: (§1) The binding activity was tested in ELISA assay. Briefly, Nunc Maxisorp (ThermoFisher) plates were coated overnight at 4° C. with huIL-15R/3-6His at 1 μg/well (100 μl/well) in bicarbonate buffer pH 9.4 (ThermoFisher). After washing 3 times with PBS/0.05% Tween20, plates were incubated with SuperBlock (300 μl/well) at room temperature for 2 hrs. to block nonspecific binding. After washing, IL-15 compounds each at 3-fold serial dilutions with blocking buffer were added to the plates (100 μl/well) and incubated at room temperature for 1 hr. After washing, the Fc fusions were detected by 1 hr. incubation at room temperature with a goat anti-human IgG Fc secondary antibody conjugated with horseradish peroxidase (HRP) at 1:5000 dilution in blocking buffer (ThermoFisher) (100 μl/well). After washing, TMB substrate (ThermoFisher) was added (100 ul/well). Plates were sealed and incubated 5-20 min at room temperature in dark. Reaction was stopped by adding 2N sulfuric acid (Ricca Chemical) (50 uL/well) and absorbance was read at 450-590 nm.
(§2) The data strengthened the notion that the S58D substitution in the IL-15 peptide may tune IL-15 into a super-agonist attributed to the enhanced receptor binding activity.

huIL-15Rβ-6His [2] = target: T1, huIL-15Rβ-6His; experiment: ELISA, huIL-15Rβ-6His coated, anti-human IgG Fc-HRP detection
Experimental: as §1, §2

B1: P-0361, IL-15i1 ('GS' insertion after N95) in bivalent IL-15/IL-15Rα (non-covalent) Fc fusion format (Fc fusion)
chain 1: [human IgG1 Fc with L234A L235A G237A (EU numbers) not written out]GGGGSGGGGSGGGGSNWVNVISDLKKIEDLIQSMHIDATLYTESDVHPSCKVTAMKCFLLELQVISLESGDASIHDTVENLIILANNSLSSNGNVTESGCKECEELEEKNGSIKEFLQSFVHIVQMFINTS
chain 2: ITCPPPMSVEHADIWVKSYSLYSRERYICNSGFKRKAGTSSLTECVLNKATNVAHWTTPSLKCIRDPALVHQRPAPP
Question: How did the Fold change (huIL-15Rβ-6His [1]) turn out when B1 was run?
Answer: 9 fold

Question: What about the EC50 (huIL-15Rβ-6His [2]) of the same binder?
Answer: 7.66 nM
